Assay results published in paper PMC12136788.
The other results are listed elsewhere or left out.

B1: chr1:231019617:231019718:-|3pUTR|ENSG00000182118|msi1|FALSE|unique (ssRNA)
RNA: GGGAGUUCUACAGUCCGACGAUCGCAGGGAGUUCUCCGCGGAUGCAUGGUGGCAGUCUGCUUUGAUGGCAGCAGUUUCUGCUUAGGUGACCUAGAGGUCCUCAGCAGUAUCCUCCACACCUAUUUAUUGAGGUGCACCUGCUGCAACAGAGGAUUGAGCAUCA
B2: chr2:1633824:1633925:-|3pUTR|ENSG00000130508|msi1|FALSE|unique (ssRNA)
RNA: GGGAGUUCUACAGUCCGACGAUCAUUUAAUUCUUUUAAAAUGAAAAAUUGGUGCUACUAUUAAAUUGCACAGUUGAAUCAUUUAGGCGCCUAAAUUGAUUUUGCCUCCCAACACCAUUUCUUUUUAAAUAAAGCAGGAUACCUCAACAGAGGAUUGAGCAUCA
B3: chr10:72062367:72062468:-|3pUTR|ENSG00000107742|unk|total|mutant (ssRNA)
RNA: GGGAGUUCUACAGUCCGACGAUCCCUUGAUCCACACUGCUCCUGGCAGAGUGAGUCACCCAAAGGCCCCUUCGGCCUCCUUGCCGCUGUUUUCUUUCCUUUUGUUGUUGGUUUUAAAAUACAUUCACACACAAAUACAAAUUGCAACAGAGGAUUGAGCAUCA
B4: chr3:170465896:170466000:-|3pUTR|ENSG00000013293|unk|FALSE|unique (ssRNA)
RNA: GGGAGUUCUACAGUCCGACGAUCACUUAGGUAGUUGCAUUCCAUGAGAUCACAUUUCACUUCUGAACCUUAUUCCUUGGGGCUAGCUCACUUUCAGAGGUGUAUUUUUUUUUCCUGUUAUUUCCCAGAGUAGUUUCACUGAAGCAACAGAGGAUUGAGCAUCA
B5: ENSG00000070961:be:win_3101|CDS|ENSG00000070961|bound_else_gene|NA|bound_elsewhere_windowed (ssRNA)
RNA: GGGAGUUCUACAGUCCGACGAUCCAGAACUUUCAAUAGAACAGUGGCUAUGGUCAAUAUUCCUAGGAAUGGGAACAUUACUCUGGGGCCAGCUUAUUUCAACAAUUCCAACUAGCCGUUUAAAAUUCCUCAAAGAAGCUGGUCCAACAGAGGAUUGAGCAUCA
B6: ENSG00000124766:be:win_3451|3pUTR|ENSG00000124766|bound_else_gene|NA|bound_elsewhere_windowed (ssRNA)
RNA: GGGAGUUCUACAGUCCGACGAUCAGAGGCUUUAAAACUGGUGCAAUUACAGCAAAAAGGGAUUCUGUAGCUUUAACUUGUAAACCACAUCUUUUUUGCACUUUUUUUAUAAGCAAAAACGUGCCGUUUAAACCACUGGAUCUACAACAGAGGAUUGAGCAUCA
B7: chr1:233671823:233671924:+|3pUTR|ENSG00000135750|msi1|total|mutant (ssRNA)
RNA: GGGAGUUCUACAGUCCGACGAUCUGCUGCUGUGGUCCGAAGCAGAUUUUAUACUUUUAACUGGAAACUUUGGGGUUUGCAUUCCGAUCAUUCCGCUGAUGGCUAAACCGCAAAAUUUAUAUUCCGAAGCAAAAAAAAAAAGCACAACAGAGGAUUGAGCAUCA
B8: chr15:90998672:90999054:-|three_prime_utr|ENSG00000184056|control|control|control (ssRNA)
RNA: GGGAGUUCUACAGUCCGACGAUCAUAACCAAGUGUCCACCAACUACCUGCUAAGAGCCGGGAGCAUGGAACGUGUUGGGAUUUAGAGAACAUUAUCUGAGAAAAGAGUUCACUUCCUGCUCCCAGGAUAUUUCUCUUUUCUGUCAACAGAGGAUUGAGCAUCA
B9: chr17:30248266:30248367:-|3pUTR|ENSG00000108578|msi1|total|mutant (ssRNA)
RNA: GGGAGUUCUACAGUCCGACGAUCUUGGGUGAGAACAACCAAAAUCUUAUCAUGGUCUCAGUCAUAAUCAUCCGGGGGAACUCCCGCCAAAUGGUUUAACUUCUGCCUGUGGAACUGGGGAUUGGGUGGGCAGGAAAAGGUGAUCAACAGAGGAUUGAGCAUCA
B10: ENSG00000124225:stop:overlap|stop_codon|ENSG00000124225|stop_codon|NA|stop_codon (ssRNA)
RNA: GGGAGUUCUACAGUCCGACGAUCCCCUAGAGAGCGCAGCCAUCUGGAGCAAAGAGAAGGAUAAACAGAAAGGACACCCUCUCUAGGGUCCCCAGGGGGGCCGGGCUGGGGCUGCGUAGGUGAAAAGGCAGAACACUCCGCGCUCAACAGAGGAUUGAGCAUCA
B11: ENSG00000070961:be:win_5401|3pUTR|ENSG00000070961|bound_else_gene|NA|bound_elsewhere_windowed (ssRNA)
RNA: GGGAGUUCUACAGUCCGACGAUCCUAUAACUGAGAGUGCUGACCAAGCAAAGAAACAUUUAGUUGAUGGUGCUUGAUAUUUUUGGUGGGUGGGGGAAAUCUUUUUCUCACCAUCAAAUCUUUGCAGUAAUCCUCUGCAGGUCUCAACAGAGGAUUGAGCAUCA
B12: chr3:154315110:154315224:-|CDS|ENSG00000174953|unk|total|mutant (ssRNA)
RNA: GGGAGUUCUACAGUCCGACGAUCUCAGAGAACAAACUUGACAUCCAGGAAAAGAAGUUGAUAAAUCAAGAAAAAAAAAUGUUCCGAAUCAGGAACAGAUCAUAUAUUGACCGAGAUUCUGAGUAUCUCUUGCAAGAAAAUGAACAACAGAGGAUUGAGCAUCA
B13: chr19:1925605:1925706:+|3pUTR|ENSG00000227500|msi1|total|mutant (ssRNA)
RNA: GGGAGUUCUACAGUCCGACGAUCUUUGGACACCCCAGGCUGCCACCCCUCCCCACCCGUUCACCCCCAGGAUGCUGUUGCUGCCGGACGCCUGCUGCCCUGGAGCCCUCCCCAGGAUGUGAGCCAGUCCCCUCGCUGGUACGGCAACAGAGGAUUGAGCAUCA
B14: chr6:38153770:38153871:+|3pUTR|ENSG00000156639|msi1|total|mutant (ssRNA)
RNA: GGGAGUUCUACAGUCCGACGAUCGGUGGACAGGAUCAGGAUUCCCUUGAAAGCCCAGGCAGGGUGAGCAGUCCCAGUGGUCCCCGUGCCGCAUCAGAUCCAGGUGGGUGAGGGCAGGAGGCCCCUGCGGAGGCAGCGUGGAUCCAACAGAGGAUUGAGCAUCA
B15: chr2:60940222:60942394:-|three_prime_utr|ENSG00000162927|control|control|control (ssRNA)
RNA: GGGAGUUCUACAGUCCGACGAUCGUAACAUCUCAGGAUCUAUAUAUGUGUAUAUUUUGUGUUAAAUUGUUCCAAGGAUGUCUUAGGAUUUUUCUCAUUCCCUCUUUCACCCCCACAAACCAAACUAUGAAUAAUGAAAUAAUUCAACAGAGGAUUGAGCAUCA
B16: ENSG00000198589:be:win_4201|CDS|ENSG00000198589|bound_else_gene|NA|bound_elsewhere_windowed (ssRNA)
RNA: GGGAGUUCUACAGUCCGACGAUCGAAGCCUCUGUGACAUUUUUGCAGAGGCUAAUUAGCCUUGUGGAUGUGCUUAUAUUUGCAAGUUCUCUUGGCUUUACUGAAAUUGAAGCUGAAAAAAGUAUGUCAUCUGGAGGAAUUUUGCAACAGAGGAUUGAGCAUCA
B17: chr1:6522505:6522606:-|3pUTR|ENSG00000162408|msi1|total|mutant (ssRNA)
RNA: GGGAGUUCUACAGUCCGACGAUCCUGGGAUUACAGGCGUGAGCCACUGCGCCUGGCCUGAAGCUAUUCUUUACAAAAGCUCUCCGUUUUUGUUUGUUUGUUUGUUUUUUUCUUUUGCGACGGACUCUCUGUCGCCAAGGCUGGCAACAGAGGAUUGAGCAUCA
B18: chr2:30159184:30159288:+|3pUTR|ENSG00000119801|unk|total|mutant (ssRNA)
RNA: GGGAGUUCUACAGUCCGACGAUCAAAAUCUGGGCUGUCCGAGUGAAAAAGUGUGUUUUAUGUCAAUUGUGAAAGGAAAAUGUCCGGAGUAUGGUUUUUAAACUUGGGCUUCAUUUUAAACUUUUUUUUUUAAACCCAGUUAUUCAACAGAGGAUUGAGCAUCA
B19: chr19:4361374:4361475:-|3pUTR|ENSG00000141985|msi1|FALSE|unique (ssRNA)
RNA: GGGAGUUCUACAGUCCGACGAUCCAGGACCCCACACUUGGGUGGGGGGGCUUAUCUGGGUGGGUGGGGAUGCCUGUUUACACUAGCGCUGACUCCCAACGGUGACGGCUCCCUUCCCCACUCCAUGGCGCCAGCCUCCUCCCCCAACAGAGGAUUGAGCAUCA
B20: chr17:81557321:81557422:-|3pUTR|ENSG00000182446|msi1|total|mutant (ssRNA)
RNA: GGGAGUUCUACAGUCCGACGAUCAGCAUUUCCCUUACUCUGAAGUUCCGGCAUUCACAUCAUUCAUGUUUUCUUUUGUCUUUCCGCUAAAGGAAAAGCAUUGGCGAUUUGUCUGAUUCUGGUUUUGAGUUACUCUUUGUUCAGCAACAGAGGAUUGAGCAUCA
B21: chr6:105096826:105097152:-|3pUTR|ENSG00000112276|msi1|total|mutant (ssRNA)
RNA: GGGAGUUCUACAGUCCGACGAUCACUUGCAACCCCGUUUUAAAAUACAUGAGGAUUUUAUGAAAGCUUUAUACAGACAUUUACCGGAAACUCAUUCUUUGAUUUCCGGUGCCAUUUAAAUUGAUAACACUUACUUUAUAAAAACAACAGAGGAUUGAGCAUCA
B22: chr9:101424453:101424812:-|three_prime_utr|ENSG00000136872|control|control|control (ssRNA)
RNA: GGGAGUUCUACAGUCCGACGAUCGCUUGACUUUCCAACACGGAGAAGCAUUGUUUUCUUUGGGCCAAGAAGGUAUCUACCGAUAGUGUCUAUUAGGCAUUUGAAAAUGUGGCAGUAGAGGUCAGUAUGAGGAUUGAGGCUAGACAACAGAGGAUUGAGCAUCA

target: MSI1 full-length (mouse, UniProt Q61474 1-362); assay: nsRBNS (natural sequence RNA bind-n-seq); RBNS binding buffer (assumed for nsRBNS): 25 mM Tris pH 7.5, 150 mM KCl, 3 mM MgCl2, 0.01% Triton X-100, 500 ug/ml BSA, 20 U/ml SUPERase-In, 4 C; UNK is unkempt and MSI1 is Musashi-1; names of the RNAs are library labels; protein concentration not given here; high values mean tight binding
Sequence of UniProt Q61474 (Q61474 whole entry): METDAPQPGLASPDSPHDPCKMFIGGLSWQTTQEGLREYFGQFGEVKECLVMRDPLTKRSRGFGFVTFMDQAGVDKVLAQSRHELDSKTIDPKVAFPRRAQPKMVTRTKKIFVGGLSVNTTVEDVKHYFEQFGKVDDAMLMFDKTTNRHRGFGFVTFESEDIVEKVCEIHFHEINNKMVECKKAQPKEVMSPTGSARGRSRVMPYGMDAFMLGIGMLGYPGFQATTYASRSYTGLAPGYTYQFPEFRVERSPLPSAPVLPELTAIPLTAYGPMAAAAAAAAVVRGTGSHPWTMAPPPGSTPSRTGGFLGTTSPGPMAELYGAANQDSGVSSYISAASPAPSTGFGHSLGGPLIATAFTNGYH

Binder | binding signal [enrichment R]
B1 | 0.432
B2 | 0.464
B3 | 0.376
B4 | 10
B5 | 0.672
B6 | 1.5
B7 | 0.297
B8 | 0.326
B9 | 0.588
B10 | 0.737
B11 | 0.43
B12 | 0.354
B13 | 0.693
B14 | 0.312
B15 | 1.32
B16 | 0.239
B17 | 0.396
B18 | 0.603
B19 | 0.54
B20 | 0.313
B21 | 1.7
B22 | 0.53
